Source: publication PMC4336329 (PLoS ONE, 2015)
Among all 310,000 compounds or so, about 2,200 (0.71%) showed an effect of 50% or more. Effects have a minus sign here. Some of the results follow.

The compounds below were run against human ether-à-go-go-related gene (hERG) potassium channel (human, UniProt Q12809) (assay: primary screen, population patch clamp on CHO cells stably expressing hERG).
Chain of human ether-à-go-go-related gene (hERG) potassium channel (Q12809 whole entry, looked up): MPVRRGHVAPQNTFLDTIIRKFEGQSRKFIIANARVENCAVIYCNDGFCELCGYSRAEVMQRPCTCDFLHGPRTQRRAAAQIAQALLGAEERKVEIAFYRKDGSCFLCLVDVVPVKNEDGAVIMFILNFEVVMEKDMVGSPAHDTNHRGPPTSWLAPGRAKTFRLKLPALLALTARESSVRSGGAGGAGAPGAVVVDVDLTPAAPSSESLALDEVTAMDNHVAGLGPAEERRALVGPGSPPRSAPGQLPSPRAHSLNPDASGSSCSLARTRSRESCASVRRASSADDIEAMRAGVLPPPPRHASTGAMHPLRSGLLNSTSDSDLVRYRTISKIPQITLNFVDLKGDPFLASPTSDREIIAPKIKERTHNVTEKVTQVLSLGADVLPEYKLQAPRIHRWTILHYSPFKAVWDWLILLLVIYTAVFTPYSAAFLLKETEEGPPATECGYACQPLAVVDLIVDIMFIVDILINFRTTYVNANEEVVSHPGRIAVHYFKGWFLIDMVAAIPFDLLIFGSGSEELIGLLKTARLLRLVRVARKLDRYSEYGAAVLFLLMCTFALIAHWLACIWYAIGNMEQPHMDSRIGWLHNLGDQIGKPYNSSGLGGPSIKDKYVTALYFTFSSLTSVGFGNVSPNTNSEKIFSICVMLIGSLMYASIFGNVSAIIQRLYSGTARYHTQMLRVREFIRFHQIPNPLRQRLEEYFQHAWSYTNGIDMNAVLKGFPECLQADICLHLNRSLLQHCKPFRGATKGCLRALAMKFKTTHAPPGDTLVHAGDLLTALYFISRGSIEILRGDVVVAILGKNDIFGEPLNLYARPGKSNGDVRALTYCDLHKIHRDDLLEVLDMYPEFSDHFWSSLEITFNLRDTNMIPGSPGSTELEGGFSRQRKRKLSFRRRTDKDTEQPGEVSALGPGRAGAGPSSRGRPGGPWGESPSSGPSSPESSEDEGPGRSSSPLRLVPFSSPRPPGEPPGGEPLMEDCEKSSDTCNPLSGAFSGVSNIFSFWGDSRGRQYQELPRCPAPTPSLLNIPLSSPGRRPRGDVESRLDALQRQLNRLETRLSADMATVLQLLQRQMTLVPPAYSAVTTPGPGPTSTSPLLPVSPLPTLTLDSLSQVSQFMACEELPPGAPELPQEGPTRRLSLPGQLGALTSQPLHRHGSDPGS

| SMILES | hERG current change (%, negative = inhibition) at 1uM [%] |
| --- | --- |
| CCOc1ccc(OCCN2CCCCC2)cc1.O=C(O)C(=O)O | -4.9 |
| CCOc1cc(CC(=O)N[C@@H](CC(C)C)c2ccccc2N2CCCCC2)ccc1C(=O)O | 17.3 |
| COc1ccc(/C(C)=N/Nc2cccc(C(=O)O)c2)cc1OC | 3.83 |
| CC(C)CNC(=O)c1ccccc1N(Cc1ccccc1)S(C)(=O)=O | 10.8 |
| COc1ccc(S(=O)(=O)N2CCCCCC2)cc1C(=O)N(C)CC(=O)Nc1cc(C)ccc1C | 7.39 |
| CC(=O)Nc1nnc(COc2ccccc2)s1 | 5.49 |
| COC(=O)C1=C(C)N(CCc2cc(OC)c(OC)c(OC)c2)C(=O)N[C@H]1c1cccs1 | 17.8 |
| O=C(COC(=O)c1ccc(Cl)c(S(=O)(=O)N2CCN(c3ccc(F)cc3)CC2)c1)Nc1cccc(Cl)c1 | 14 |
| Clc1ccccc1-c1nnc2sc(C3COc4ccccc4O3)nn12 (centres unmarked) | -4.51 |
| O=C(COc1ccc2ccc(=O)oc2c1)Nc1ccc(N2CCCCC2)cc1 | 5.6 |
| Cc1ccccc1Nc1nc(-c2ccccc2)c(C(=O)Nc2cccnc2)s1 | 15.8 |
| O=C(Nc1ncc(Cc2cccc(C(F)(F)F)c2)s1)c1ccc(-c2cccc([N+](=O)[O-])c2)o1 | 4.7 |
| CCc1cc(=O)[nH]c(SC/C=C/c2ccccc2)n1 | 3.83 |
| O=C(CCS(=O)(=O)c1ccc(Br)cc1)NC1CCCCCC1 | 12.7 |
| Cc1cccc(C(=O)N2CCN(c3ccc(C(F)(F)F)cn3)CC2)c1C | -0.977 |
| COc1ccc(NC(=O)C2CCN(S(=O)(=O)c3ccc(N4CCCC4=O)cc3)CC2)c(OC)c1 | 17.6 |
| O=[n+]1c2c(n([O-])c3c1CCCC3)CCCCC2 | 1 |
| CC1CCN(Cc2nnnn2CCCC(=O)NC(c2ccccn2)C(F)(F)F)CC1 (centres unmarked) | 8.06 |
| Cc1cc(C(=O)CN2C(=O)NC(CC(C)C)C2=O)c(C)n1-c1ccccc1F (centres unmarked) | 15.3 |
| C/C(=N\NC(=O)OC(C)(C)C)c1ccccc1Br | 16.2 |
| COc1ccccc1/C=N/NC(=O)CCSc1ccccc1 | 8.57 |
| CC(=O)NN1C(=O)c2ccc3c4c(ccc(c24)C1=O)C(=O)N(NC(C)=O)C3=O | 13 |

| SMILES | hERG current change (%, negative = inhibition) at 1uM [%] |
| --- | --- |
| O=C(/C=C/c1ccco1)OCn1nnc2ccccc2c1=O | 2.97 |
| CC1CCc2c(C(=O)Nc3ccc(N4CCOCC4)cc3)csc2C1 (centres unmarked) | 4.71 |
| Cc1cc(C)cc(NC(=O)CN2C(=O)NC(C)(c3ccccc3)C2=O)c1 (centres unmarked) | 14.8 |
| O=C(O)c1ccc(NC2=C(Cl)C(=O)c3ccccc3C2=O)cc1 | 15.5 |
| Cc1ccc(NC(=O)COC(=O)Cc2ccsc2)cc1S(=O)(=O)N1CCOCC1 | 1.52 |
| CC(C)(C)C(=O)OCOC(=O)[C@@H]1N2C(=O)[C@@H](N=CN3CCCCCC3)[C@H]2SC1(C)C.Cl | 2.68 |
| Cc1ccc(-c2cc3nc4c(c(=O)n3[nH]2)CCCC4)cc1 | 14.7 |
| Cc1cc([N+](=O)[O-])ccc1N(C)C | 13.5 |
| Cn1cnc(S(=O)(=O)Nc2ccc(OC(F)(F)F)cc2)c1 | 11.7 |
| CCSC1=C(C#N)C(c2cccc(OC)c2)CC(=O)N1 (centres unmarked) | 6.87 |
| O=C(CC1C(=O)NCCN1Cc1cccc(F)c1)NCCCCCN1CCOCC1 (centres unmarked) | 9.28 |
| O=C(O)C(=O)O.O=C1CC(Cc2ccccc2)C(=O)N1CCCn1ccnc1 (centres unmarked) | -2.04 |
| Brc1cccc(-c2nnc3sc(CN4CCCCC4)cn23)c1 | 6.51 |
| COC(=O)c1cc(NC(=O)COC(=O)C2CCC2)cc(C(=O)OC)c1 | 12.5 |
| O=C(Nc1nc2ccccc2s1)NC1CCCCC1 | 8.46 |
| Cc1c(Cl)cccc1N/C(=N/S(=O)(=O)c1cccs1)c1ccccc1 | 12.6 |
| COc1ccc(Br)cc1CN1CCCC(C(=O)N2CCCCCC2)C1.O=C(O)C(=O)O (centres unmarked) | -22.1 |
| CCOc1ccc(C(=O)Nc2c(C(=O)N3CCC(N4CCCCC4)CC3)oc3ccccc23)cc1 | -82 |
| CC(C)CNS(=O)(=O)c1ccc(S(=O)(=O)N2CCC(N3CCCCC3)CC2)cc1 | 9.1 |
| O=C(NCCCN1CCOCC1)c1cc2c(s1)-c1ccccc1OC2 | -0.494 |
| COc1ccc(-c2ccc(S(=O)(=O)n3nc(OC(=O)c4cccs4)cc3N)cc2)cc1 | 8.64 |
| CC(=O)c1ccc(NC(=S)Nc2cccc(S(=O)(=O)Nc3c(C)n(C)n(-c4ccccc4)c3=O)c2)cc1 | 11.4 |

| SMILES | hERG current change (%, negative = inhibition) at 1uM [%] |
| --- | --- |
| COc1ccc(N(C)C(=O)CCS(=O)(=O)c2cccc3nsnc23)cc1 | 7.73 |
| N#CC1=C(SCC(=O)Nc2cccc3cccnc23)NC(=O)C(C#N)C12CCCCC2 (centres unmarked) | -18.4 |
| O=S(=O)(O)c1ccc(N=NNc2ccc(Br)cc2)cc1 | 14.9 |
| CCOc1ccc(NC(=O)C(=O)NCCN2CCN(C(=O)c3ccc(C)cc3)CC2)cc1 | -65.5 |
| Cc1ccc(N(O)C(=O)NCCCCNC(=O)N(O)c2ccc(C)cc2)cc1 | 12.2 |
| CCOC(=O)c1[nH]c2ccccc2c1NC(=O)NC1CCCCC1 | 5.94 |
| COC(=O)c1c(-c2ccsc2)oc2ccc(-c3cc(OC)c(OC)c(OC)c3)cc12 | 14.6 |
| COC(=O)c1cn(NC(=O)Cc2ccccc2OC)c(=O)c2ccccc12 | 16.1 |
| Cc1oc(-c2ccccc2Cl)nc1CS(=O)CC(=O)NCc1ccc2c(c1)OCO2 (centres unmarked) | 3.74 |
| O=C(Cc1ccccc1)NC(C(=O)O)C(O)c1ccc([N+](=O)[O-])cc1 (centres unmarked) | 13.8 |
| Cl.OCCNc1nc(Nc2ccc(O)cc2)nc2ccccc12 | 2.41 |
| O=C(CSc1nnc(Cc2ccccc2)n1-c1ccccc1)N1CCOCC1 | 1.74 |
| COc1ccc(NC(=O)CSc2ccc3nnc(-c4ccccn4)n3n2)c(OC)c1 | -0.6 |
| Cc1cc(C)nc(N/N=C/C2=C(O)CC(c3ccccc3)CC2=O)n1 (centres unmarked) | 9.86 |
| Cc1ccc(S(=O)(=O)Oc2ccc(/C=C(/NC(=O)c3ccccc3)C(=O)Nc3ccccc3)cc2)cc1 | 16.6 |
| Cn1c(SCC(=O)N2CCCc3ccccc32)nc2cccnc21 | 14.5 |
| CCC(=O)N1c2ccccc2C(N(C(=O)CC)c2ccccc2)CC1C (centres unmarked) | 6.77 |
| COc1ccc(N2CC(C(=O)Nc3ccc(N4CCOCC4)cc3)CC2=O)cc1 (centres unmarked) | 6.07 |
| COc1ccc(C(=O)Nc2cccc(C(=O)NCc3ccccc3)c2)cc1 | 10.2 |
| COc1ccc(NC(=O)Nc2ccc(N(C)C)cc2)cc1 | 17.4 |
| CC1Cc2ccccc2N1C(=O)c1cc2cccnc2n(C)c1=O (centres unmarked) | 13.4 |
| CC1(C)N=c2ccc([N+](=O)[O-])c(N)c2=[N+]1[O-] | -1.78 |

| SMILES | hERG current change (%, negative = inhibition) at 1uM [%] |
| --- | --- |
| O=C(Nc1ccnn1C1CCN(Cc2cccc(OCCO)c2)CC1)C1CC1 | 13.8 |
| Cn1nc(-c2ccccc2)cc1NC(=O)Nc1ccc(C(C)(C)C)cc1 | 11.4 |
| CCOC(=O)c1cc(-c2ccccc2)n(CC2CC(c3ccc(OC)cc3)=NO2)n1 (centres unmarked) | 4.59 |
| CN(C)c1cccc(C(=O)N2CCC(n3nccc3NC(=O)C3CCOC3)CC2)c1 (centres unmarked) | 8.43 |
| COc1ccc(C(=O)NCCOc2cccc(OC)c2)cc1 | 10.3 |
| COc1ccccc1CNC(=O)c1cc(C(=O)CC(C)C)c[nH]1 | 12 |
| O=C(N/N=C1/CCSC1)c1cccc([N+](=O)[O-])c1 | -0.549 |
| O=C(OCc1nc2ccccc2c(=O)[nH]1)c1cccs1 | 22.6 |
| Cc1cccc(OCC(=O)N/N=C\C=C\c2ccc3c(c2)OCO3)c1C | 5.45 |
| CCn1cc(/C=C(\NC(=O)c2ccccc2OC)C(=O)NCCCN2CCOCC2)c2ccccc21 | 2.07 |
| Cc1noc(C)c1COc1ccc(C(=O)N2CCCC(C(N)=O)C2)cc1 (centres unmarked) | 3.83 |
| O=C1CN(C(=O)N[C@@H](Cc2ccccc2)C(=O)N[C@@H](C(=O)O)c2ccccc2)c2ccccc2N1 | 19.7 |
| O=C(CCc1nnc(-c2ccccc2)o1)NCC1CCN(C2CCCC2)CC1 | 5.72 |
| CC(=O)N=c1sccn1CC(O)c1ccc(Br)cc1 (centres unmarked) | 15.6 |
| Cc1cc(C)n(CC(=O)NCCC2=CCCCC2)n1 | 10.5 |
| N/C(=N\NC(=O)c1cccs1)c1cc2ccccc2oc1=O | 0.826 |
| Cn1c(=O)c2c(nc(NCC3CCCO3)n2C)n(C)c1=O (centres unmarked) | 3.17 |
| Cc1nc(N2CCc3ccccc3C2)[nH]c(=O)c1CCC(C)C | 13.1 |
| O=C(COc1ccc(Cl)cc1Cl)NN=C1c2ccccc2-c2ccccc21 | 11.1 |
| O=C(O)CC(c1ccc(Cl)cc1)N1Cc2ccccc2C1=O (centres unmarked) | 12.7 |
